In paper PMC10897598, “TwinF interface inhibitor FP802 stops loss of motor neurons and mitigates disease progression in a mouse model of ALS” (Cell Reports Medicine, 2024):

Tests used:
[1] = target: T1, human GluN1/GluN2B NMDARs (Homo sapiens, UniProt Q05586+Q13224); conditions: GluN1/GluN2B cell line, saturating glycine 100 μM; determined previously for each cell line; cited from earlier work
T1 construct: host or cells: HEK293

[2] = target: T2, human GluN1/GluN2A NMDARs (Homo sapiens, UniProt Q05586+Q12879); conditions: GluN1/GluN2A cell line, saturating glycine 100 μM; determined previously for each cell line; cited from earlier work
T2 construct: host or cells: HEK293
T2 sequence (Q12879 23-1464, other chains not shown): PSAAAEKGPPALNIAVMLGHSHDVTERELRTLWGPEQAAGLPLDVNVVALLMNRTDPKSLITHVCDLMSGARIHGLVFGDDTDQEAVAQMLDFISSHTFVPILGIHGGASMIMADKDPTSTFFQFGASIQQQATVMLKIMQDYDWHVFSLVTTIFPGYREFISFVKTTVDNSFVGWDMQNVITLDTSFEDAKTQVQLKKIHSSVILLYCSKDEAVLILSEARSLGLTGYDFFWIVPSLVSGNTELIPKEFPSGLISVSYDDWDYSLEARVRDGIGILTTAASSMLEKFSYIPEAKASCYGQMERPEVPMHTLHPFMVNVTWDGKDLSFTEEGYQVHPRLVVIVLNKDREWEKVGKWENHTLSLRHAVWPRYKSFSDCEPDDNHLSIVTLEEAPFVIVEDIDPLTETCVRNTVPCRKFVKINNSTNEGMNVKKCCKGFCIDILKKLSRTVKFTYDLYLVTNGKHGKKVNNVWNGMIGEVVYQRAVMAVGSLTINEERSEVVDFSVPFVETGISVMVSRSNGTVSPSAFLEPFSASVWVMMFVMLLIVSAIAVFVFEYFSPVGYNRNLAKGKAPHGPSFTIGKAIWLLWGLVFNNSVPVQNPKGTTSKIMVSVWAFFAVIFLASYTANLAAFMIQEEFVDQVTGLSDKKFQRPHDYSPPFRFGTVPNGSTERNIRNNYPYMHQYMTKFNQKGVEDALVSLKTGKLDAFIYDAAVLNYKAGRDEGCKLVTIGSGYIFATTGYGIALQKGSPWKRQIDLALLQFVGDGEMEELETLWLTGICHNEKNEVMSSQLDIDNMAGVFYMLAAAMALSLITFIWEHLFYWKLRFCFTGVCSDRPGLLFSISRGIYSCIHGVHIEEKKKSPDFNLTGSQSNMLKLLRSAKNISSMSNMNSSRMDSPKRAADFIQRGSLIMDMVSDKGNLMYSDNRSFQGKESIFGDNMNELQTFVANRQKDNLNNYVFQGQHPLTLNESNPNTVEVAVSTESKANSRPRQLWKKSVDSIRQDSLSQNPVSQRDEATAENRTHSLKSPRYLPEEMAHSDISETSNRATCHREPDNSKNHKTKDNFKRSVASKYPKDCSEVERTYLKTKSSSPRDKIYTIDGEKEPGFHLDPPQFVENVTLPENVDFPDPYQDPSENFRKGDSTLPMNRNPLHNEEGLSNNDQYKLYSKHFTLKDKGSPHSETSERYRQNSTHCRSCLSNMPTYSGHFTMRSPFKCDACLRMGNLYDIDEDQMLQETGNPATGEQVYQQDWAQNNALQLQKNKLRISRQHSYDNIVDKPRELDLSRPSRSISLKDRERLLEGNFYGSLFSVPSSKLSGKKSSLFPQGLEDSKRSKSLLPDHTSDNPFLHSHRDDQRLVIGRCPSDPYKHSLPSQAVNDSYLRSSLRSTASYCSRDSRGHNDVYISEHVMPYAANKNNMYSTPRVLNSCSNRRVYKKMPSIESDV

[3] = test system: primary mouse cortical neurons; assay: Glutamate neurotoxicity assay in primary cortical neurons; type: cell-based
Description: On DIV10, vehicle (DMSO) or FP802 were added to the primary cortical cultures 30 min prior to glutamate insult. Images were acquired following the glutamate application for 24 h with 2 h intervals, where 9 images were obtained via a 20x objective for each condition at each time point with IncuCyte S3 Live-Cell Analysis System (Sartorius AG, Germany).

[4] = target: T1, human GluN1/GluN2B NMDARs; assay: Automated patch clamp, NMDARs in HEK293 cells; type: cell-based; conditions: +40 mV; glycine 100 μM plus NMDA 40 μM; stable HEK293
Description: (§1) Recombinant human GluN1 (UniProt ID Q05586) with GluN2A (Uniprot Q12879) or GluN2B (Uniprot Q13224) NMDARs were stably expressed under tetracycline control in HEK293 cell lines (Charles River). Voltage-clamp recordings were performed using the Sophion Qube platform which performs 384 parallel and independent patch-clamp recordings with digitally controlled microfluidics (Tecan D300) on a disposable single-hole or multi-hole QChip. The following extracellular solution was used: 145 mM NaCl, 4 mM KCl, 10 mM HEPES, 10 mM glucose, 2 mM CaCl2, 1 mM MgCl2; pH 7.4. The following intracellular solution was used: 70 mM CsF, 70 mM CsCl, 10 mM HEPES, 1 mM EGTA; 316 mOsm, pH 7.2. For analysis of channel activation kinetics, cells were held at −70 mV and stepped to −20 mV before the application of glycine (100 μM) plus NMDA (90 μM for GluN1/GluN2A and 40 μM for GluN1/GluN2B). […] Quality control thresholds were set according to the seal resistance (minimum […]), and failed experiments were excluded from the analysis. For analysis of steady state agonist IC50 values, voltage steps to +40 mV were performed in the presence and absence of agonists before and after compound application in the same cell. IC50 data were generated from agonist responses as described before.[20]
(§2) Figure S1. Analysis of IC50 values of FP802 for NMDARs in HEK293 cells. […] The effects of FP802 on NMDARs were evaluated at +40 […]

[5] = target: T2, human GluN1/GluN2A NMDARs; assay: Automated patch clamp, NMDARs in HEK293 cells; type: cell-based; conditions: +40 mV; glycine 100 μM plus NMDA 90 μM; stable HEK293
Description: as §1, §2

[6] = test system: NMDARs; design: method as in PMID 33033186; conditions: electrophysiology; cited from earlier work
[7] = test system: neuronal cell culture; design: method as in PMID 33033186; conditions: cited from earlier work
[8] = test system: mouse models of stroke and retinal degeneration; design: method as in PMID 33033186; conditions: cited from earlier work

T1 sequence (Q13224 27-1484, other chains not shown): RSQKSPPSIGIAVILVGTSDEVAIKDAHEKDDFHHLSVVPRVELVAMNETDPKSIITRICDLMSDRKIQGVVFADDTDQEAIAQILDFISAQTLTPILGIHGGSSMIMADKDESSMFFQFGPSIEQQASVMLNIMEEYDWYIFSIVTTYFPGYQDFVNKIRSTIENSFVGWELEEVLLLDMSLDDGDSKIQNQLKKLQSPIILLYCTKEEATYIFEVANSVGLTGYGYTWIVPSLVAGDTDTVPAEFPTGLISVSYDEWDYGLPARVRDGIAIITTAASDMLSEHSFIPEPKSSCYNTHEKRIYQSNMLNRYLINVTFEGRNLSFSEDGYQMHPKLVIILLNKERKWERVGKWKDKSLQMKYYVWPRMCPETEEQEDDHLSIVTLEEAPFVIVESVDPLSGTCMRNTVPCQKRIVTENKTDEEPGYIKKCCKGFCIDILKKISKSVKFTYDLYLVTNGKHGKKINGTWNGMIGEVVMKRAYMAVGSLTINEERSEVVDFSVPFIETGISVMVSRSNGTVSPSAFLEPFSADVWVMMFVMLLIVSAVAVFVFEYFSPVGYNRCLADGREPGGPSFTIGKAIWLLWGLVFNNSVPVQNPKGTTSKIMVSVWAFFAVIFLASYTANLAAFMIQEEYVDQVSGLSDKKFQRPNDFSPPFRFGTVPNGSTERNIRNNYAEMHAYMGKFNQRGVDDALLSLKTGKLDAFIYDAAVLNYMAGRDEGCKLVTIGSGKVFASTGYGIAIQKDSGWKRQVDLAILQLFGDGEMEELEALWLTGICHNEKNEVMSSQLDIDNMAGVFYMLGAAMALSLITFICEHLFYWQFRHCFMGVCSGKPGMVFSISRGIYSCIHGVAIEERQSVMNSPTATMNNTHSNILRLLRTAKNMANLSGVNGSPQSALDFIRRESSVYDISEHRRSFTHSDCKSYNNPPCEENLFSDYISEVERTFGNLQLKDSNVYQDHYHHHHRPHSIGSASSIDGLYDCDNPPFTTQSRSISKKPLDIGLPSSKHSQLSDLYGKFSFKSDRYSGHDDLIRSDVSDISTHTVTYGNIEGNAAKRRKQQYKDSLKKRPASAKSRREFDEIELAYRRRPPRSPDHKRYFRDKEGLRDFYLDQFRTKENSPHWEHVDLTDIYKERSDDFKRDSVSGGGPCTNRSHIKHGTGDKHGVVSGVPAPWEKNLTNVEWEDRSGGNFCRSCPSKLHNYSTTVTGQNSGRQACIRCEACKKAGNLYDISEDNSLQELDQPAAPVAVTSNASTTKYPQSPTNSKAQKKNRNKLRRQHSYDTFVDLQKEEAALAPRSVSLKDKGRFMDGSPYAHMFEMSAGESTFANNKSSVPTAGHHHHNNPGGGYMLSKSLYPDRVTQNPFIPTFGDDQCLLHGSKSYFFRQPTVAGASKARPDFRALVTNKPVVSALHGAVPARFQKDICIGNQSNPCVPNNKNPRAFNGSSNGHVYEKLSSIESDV

## CN[C@H](CC(=O)O)C(=O)O [NMDA]
[1]
  EC80 NMDA concentration for receptor activation: 40 µM
[2]
  EC80 NMDA concentration for receptor activation: 90 µM

## N[C@@H](CCC(=O)O)C(=O)O [glutamate, Glutamate, reference compound]
[3]
  EC80 of glutamate for death of cortical neurons: 20 µM

## N[C@H](CCCP(=O)(O)O)C(=O)O [D-APV, reference compound]
[4]
  IC50: 4.3 µM
[5]
  IC50: 4.5 µM

## CCN(CCN)Cc1cccc(Br)c1 [Compound 8]
[6]
  block of NMDARs expressed heterologously in HEK293 cells: did not block
[7]
  neuroprotection in neuronal cell culture: potent neuroprotectant
[8]
  neuroprotection in vivo in mouse models of stroke and retinal degeneration: potent neuroprotectant
